Values joined by “and” are separate entries in the source; they are usually repeats but may differ in a detail not shown here. Equal entries are not always repeated.
Key:
[1] = everolimus whole blood concentration after stent implantation in swine; details: for Cmax / Tmax: pig; for Cmax: blood Cmax; for Tmax: blood Tmax
restenosis = details: formulated onto coronary stents at 150 μg everolimus/cm^2 stent area; cited from earlier work
neointimal hyperplasia = details: cited from earlier work
[2] = everolimus arterial tissue concentration in and next to the stented vessel; type: in vivo; details: swine, 7.0×100 mm stent
[3] = extravascular tissue drug concentration after stent implantation; type: in vivo; details: swine, 7.0×100 mm stent
[4] = cited from earlier work
[5] = systemic blood concentration of everolimus in stented patients; type: in vivo; details: STENT A
Text: A second salient feature of the slow drug release of the STENT A embodiment is that the potential for systemic everolimus overexposure is minimized.

[6] = whole blood, 1070 ug, 8×28 mm stent, 1070 μg everolimus (first aspect, matches group 1)
[7] = whole blood, 1070 ug, 8×28 mm stent, 1070 μg everolimus (second aspect, matches group 2)
[8] = whole blood, 1070 ug, 10×28 mm stent, 1070 μg everolimus
[9] = whole blood, 3209 ug, 8×28 mm stent, 3209 μg everolimus
[10] = swine, whole blood, 1070 μg, drug concentration in whole blood, swine, 8.0×28 mm stent, group 2, 1070 μg Lot #2
[11] = swine, whole blood, 1070 μg, drug concentration in whole blood, 10.0×28 mm stent
[12] = swine, whole blood, 3209 μg, drug concentration in whole blood, swine, 8.0×28 mm stent, group 3, 3209 μg
[13] = swine, whole blood, drug concentration in whole blood, 7.0×100 mm stent
[14] = read-out: Mean Arterial Tissue Concentration, A non-stented region proximal to stented region
[15] = read-out: Mean Arterial Tissue Concentration, E non-stented region distal to stented region
[16] = kidney, read-out: Extravascular Drug Concentration, Kidney
[17] = liver, read-out: Extravascular Drug Concentration, Liver
[18] = lung, read-out: Extravascular Drug Concentration, Lung
[19] = muscle (gastrocnemius), read-out: Extravascular Drug Concentration, Muscle
[20] = spleen, read-out: Extravascular Drug Concentration, Spleen

In the case of `CO[C@H]1C[C@@H]2CC[C@@H](C)[C@@](O)(O2)C(=O)C(=O)N2CCCC[C@H]2C(=O)O[C@H]([C@H](C)C[C@@H]2CC[C@@H](OCCO)[C@H](OC)C2)CC(=O)[C@H](C)/C=C(\C)[C@@H](O)[C@@H](OC)C(=O)[C@H](C)C[C@H](C)/C=C/C=C/C=C/1C` [everolimus, 40-O-(2-hydroxyethyl)-rapamycin], the “blood Tmax” value ([1]; 7×100 mm stent, 3777 μg everolimus) is reported as 1.01 h, the Cmax [1, 6] is reported as no more than 2.29 ng/mL and the Cmax [1, 7] is reported as no more than 2.7 ng/mL. The Cmax [1, 8] was no more than 0.72 ng/mL, the Tmax [1, 6] was 24 h and the Tmax [1, 7] was 72 h. The Tmax [1, 8] was 168 h, the Cmax [1, 9] was no more than 3.35 ng/mL and the Tmax [1, 9] was 72 h. It also gave a Cmax ([1]; whole blood, 3777 ug, 7×100 mm stent, 3777 μg everolimus) of no more than 9.6 ng/mL, a concentration at 3 days [1, 10] of 2.7 ng/mL and a concentration at 7 days [1, 10] of 1.57 ng/mL. It also gave a concentration at 28 days [1, 10] of less than 0.1 ng/mL, a concentration at 56 days [1, 10] of less than 0.1 ng/mL and a concentration at 90 days [1, 10] of less than 0.1 ng/mL. The concentration at 7 days [1, 11] was 0.72 ng/mL, the concentration at 14 days [1, 11] was 0.23 ng/mL and the concentration at 28 days [1, 11] was 0.12 ng/mL. The concentration at 90 days [1, 11] was less than 0.1 ng/mL, the concentration at 3 days [1, 12] was 3.35 ng/mL and the concentration at 7 days [1, 12] was 1.45 ng/mL. It also gave a concentration at 14 days [1, 12] of 1.03 ng/mL, a concentration at 28 days [1, 12] of 0.29 ng/mL and a concentration at 56 days [1, 12] of less than 0.1 ng/mL. The concentration at 90 days [1, 12] was less than 0.1 ng/mL, the concentration at 0.04 days ([1]; swine, whole blood, drug concentration in whole blood, 7.0×100 mm stent, 0.04 days) was 9.56 ng/mL and the concentration at 0.12 days ([1]; swine, whole blood, drug concentration in whole blood, 7.0×100 mm stent, 0.12 days) was 6.25 ng/mL. It also gave a concentration at 0.25 days ([1]; swine, whole blood, drug concentration in whole blood, 7.0×100 mm stent, 0.25 days) of 4.97 ng/mL, a concentration at 1 day ([1]; swine, whole blood, drug concentration in whole blood, 7.0×100 mm stent, 1 day) of 4.94 ng/mL and a concentration at 2 days ([1]; swine, whole blood, drug concentration in whole blood, 7.0×100 mm stent, 2 days) of 4.13 ng/mL. The concentration at 3 days [1, 13] was 3.52 ng/mL, the concentration at 7 days [1, 13] was 1.64 ng/mL and the concentration at 14 days [1, 13] was 1.14 ng/mL. The concentration at 28 days [1, 13] was 0.27 ng/mL, the concentration at 90 days [1, 13] was less than 0.1 ng/mL and the concentration at 0 days ([1]; swine, whole blood, drug concentration in whole blood, 7.0×100 mm stent, at implantation) was less than 0.1 ng/mL. For the same compound, the “effect on restenosis as compared to bare metal or paclitaxel-eluting stents” value (restenosis) was “reduces restenosis”, the “effect on neointimal hyperplasia in animal models” value (neointimal hyperplasia) was “effectively inhibits neointimal hyperplasia” and the concentration at 7 days [2, 14] was 524 ng/g. The concentration at 7 days [2, 15] was 332 ng/g, the concentration at 14 days [2, 14] was 123 ng/g and the concentration at 14 days [2, 15] was 353 ng/g. The concentration at 28 days [2, 14] was 114 ng/g, the concentration at 28 days [2, 15] was 245 ng/g and the concentration at 90 days [2, 14] was 50 ng/g. For the same compound, the concentration at 90 days [2, 15] was 18 ng/g, the concentration at 3 days [3, 16] was 25.6 ng/g and the concentration at 7 days [3, 16] was 15.6 ng/g. For the same compound, the concentration at 14 days [3, 16] was 11.2 ng/g, the concentration at 28 days [3, 16] was 4.2 ng/g and the concentration at 90 days [3, 16] was 0.8 ng/g. It also gave a concentration at 3 days [3, 17] of 15.1 ng/g, a concentration at 7 days [3, 17] of 13.2 ng/g and a concentration at 14 days [3, 17] of 8.2 ng/g. For the same compound, the concentration at 28 days [3, 17] was 2.9 ng/g, the concentration at 3 days [3, 18] was 22.8 ng/g and the concentration at 7 days [3, 18] was 12 ng/g. For the same compound, the concentration at 14 days [3, 18] was 8.7 ng/g, the concentration at 28 days [3, 18] was 3.2 ng/g and the concentration at 90 days [3, 18] was 0.5 ng/g. The concentration at 3 days [3, 19] was 13.5 ng/g, the concentration at 7 days [3, 19] was 6.3 ng/g and the concentration at 14 days [3, 19] was 4.8 ng/g. It also gave a concentration at 28 days [3, 19] of 0.8 ng/g, a concentration at 3 days [3, 20] of 23.1 ng/g and a concentration at 7 days [3, 20] of 14.4 ng/g. The concentration at 28 days [3, 20] was 3.5 ng/g, the concentration at 90 days [3, 20] was 0.7 ng/g and the “Cmax of patients treated with 5 mg everolimus per day in safety studies” value ([4]; 5 mg everolimus per day) was 114 ng/mL and 116 ng/mL. The “recommended upper therapeutic limit in transplanted patients” value ([4]; blood concentration) was 8 ng/mL, the “maximum systemic blood concentration of everolimus in stented patients” value ([5]; 100 mm stent having about 3.8 mg drug, one hour post-procedure) was 3 to 4 ng/mL and the “whole blood concentration of everolimus in stented patients, projected” value ([5]; projected from porcine model (FIG. 3)) was 1 to 6 ng/mL.
